Results taken from the supplement of paper PMC4967469.
By IC50 is meant the dose at which the fit gives 50% viability; fits outside the tested doses are given as limits. AUC, from the same fit, is the share of area under the viability curve across the 256-fold dose range; it is 1 without any effect and falls as sensitivity rises. For some assays here: A top dose marked as inferred comes from the curve model; the source does not state it. For some assays here: Where an entry number is given, a second screen of the drug exists; the two often differ.

Key:
Test in all cases: Viability of human cancer cell lines after 72 h of drug (GDSC screen)
SB-505124 = compound: Cc1cccc(-c2[nH]c(C(C)(C)C)nc2-c2ccc3c(c2)OCO3)n1 [SB-505124]; details: top dose 10 µM; top dose inferred
Procedure: (§1)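 Human cancer cell lines in 384-well plates, medium with 10% serum, drug for 72 h over a 256-fold dose range (nine 2-fold or five 4-fold steps up to the top dose). Adherent lines were fixed and stained with the nucleic acid dye Syto60, suspension lines read with resazurin; signal relative to control wells, capped at 0 and 100%. One two-parameter sigmoid per drug and line, fitted in a mixed model over all curves with the slope shared within a line.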

Tretinoin = compound: CC1=C(/C=C/C(C)=C/C=C/C(C)=C/C(=O)O)C(C)(C)CCC1 [Tretinoin]; details: top dose 10 µM; top dose inferred
Procedure: as §1

UNC0638 = compound: COc1cc2c(NC3CCN(C(C)C)CC3)nc(C3CCCCC3)nc2cc1OCCCN1CCCC1 [UNC0638]
Procedure: as §1

PI-103 = compound: Oc1cccc(-c2nc(N3CCOCC3)c3oc4ncccc4c3n2)c1 [PI-103]; details: top dose 10.24 µM
Procedure: as §1

GSK690693 = compound: CCn1c(-c2nonc2N)nc2c(C#CC(C)(C)O)ncc(OC[C@H]3CCCNC3)c21 [GSK690693]; details: top dose 10.24 µM; top dose inferred
Procedure: as §1

BX-795 = compound: O=C(NCCCNc1nc(Nc2cccc(NC(=O)N3CCCC3)c2)ncc1I)c1cccs1 [BX-795]; details: top dose 5 µM; top dose inferred
Procedure: as §1

[1] = top dose 20 µM, screen: GDSC drug entry 1236, top dose inferred
[2] = top dose 40 µM, screen: GDSC drug entry 245

| Cell Line | AUC (SB-505124) | IC50 (SB-505124) | AUC (Tretinoin) | IC50 (Tretinoin) | AUC (UNC0638; [1]) | IC50 (UNC0638; [1]) | AUC (UNC0638; [2]) | IC50 (UNC0638; [2]) | AUC (PI-103) | IC50 (PI-103) | AUC (GSK690693) | IC50 (GSK690693) | AUC (BX-795) | IC50 (BX-795) |
| --- | --- | --- | --- | --- | --- | --- | --- | --- | --- | --- | --- | --- | --- | --- |
| SW13 (adrenal gland, adherent) | 0.898 | > 10 µM | 0.909 | > 10 µM | 0.85 | 15.4 µM | 0.977 | > 40 µM | 0.959 | > 10.2 µM | 0.988 | > 10.2 µM | 0.953 | > 5 µM |
| SW48 (large intestine, adherent) | 0.981 | > 10 µM | 0.984 | > 10 µM | 0.947 | > 20 µM | 0.843 | 28.2 µM | 0.844 | 7.27 µM | 0.987 | > 10.2 µM | 0.78 | 2.05 µM |
| SW620 (large intestine, adherent) | 0.975 | > 10 µM | 0.99 | > 10 µM | 0.978 | > 20 µM | 0.808 | 17.8 µM | 0.68 | 1.9 µM | 0.977 | > 10.2 µM | 0.889 | 4.55 µM |
| SW626 (ovary, adherent) | 0.932 | > 10 µM | 0.984 | > 10 µM | 0.924 | > 20 µM | 0.785 | 20.7 µM | 0.429 | 0.394 µM | 0.932 | > 10.2 µM | 0.947 | > 5 µM |
| SW756 (cervix, adherent) | 0.975 | > 10 µM | 0.985 | > 10 µM | 0.983 | > 20 µM | 0.966 | > 40 µM | 0.945 | > 10.2 µM | 0.984 | > 10.2 µM | 0.932 | > 5 µM |
| SW780 (bladder, adherent) | 0.984 | > 10 µM | 0.964 | > 10 µM | 0.795 | 10.3 µM | 0.864 | > 40 µM | 0.986 | > 10.2 µM | 0.986 | > 10.2 µM | 0.833 | 3.63 µM |
| SW948 (large intestine, adherent) | 0.98 | > 10 µM | 0.964 | > 10 µM | 0.98 | > 20 µM | 0.877 | > 40 µM | 0.974 | > 10.2 µM | 0.881 | > 10.2 µM | 0.939 | > 5 µM |
| SW1271 (small cell lung carcinoma, adherent) | 0.979 | > 10 µM | 0.984 | > 10 µM | 0.862 | > 20 µM | 0.697 | 9.79 µM | 0.767 | 4.36 µM | 0.984 | > 10.2 µM | 0.835 | 4.03 µM |
| SW1417 (large intestine, adherent) | 0.985 | > 10 µM | 0.979 | > 10 µM | 0.984 | > 20 µM | 0.884 | > 40 µM | 0.812 | 6.7 µM | 0.983 | > 10.2 µM | 0.986 | > 5 µM |
| SW1573 (lung adenocarcinoma, adherent) | 0.961 | > 10 µM | 0.896 | > 10 µM | 0.859 | > 20 µM | 0.899 | > 40 µM | 0.883 | > 10.2 µM | 0.964 | > 10.2 µM | 0.902 | > 5 µM |
| SW1710 (bladder, adherent) | 0.901 | > 10 µM | 0.96 | > 10 µM | 0.873 | > 20 µM | 0.856 | 33.9 µM | 0.308 | 0.182 µM | 0.936 | > 10.2 µM | 0.814 | 2.83 µM |
| SW1783 (glioma, adherent) | 0.917 | > 10 µM | 0.991 | > 10 µM | 0.891 | 19.3 µM | 0.871 | 31.4 µM | 0.859 | 7.22 µM | 0.989 | > 10.2 µM | 0.876 | 4.13 µM |
| Saos-2 (osteosarcoma, adherent) | 0.887 | > 10 µM | 0.876 | > 10 µM | 0.846 | > 20 µM | 0.98 | > 40 µM | 0.971 | > 10.2 µM | 0.98 | > 10.2 µM | 0.862 | > 5 µM |
| SiHa (cervix, adherent) | 0.981 | > 10 µM | 0.979 | > 10 µM | 0.972 | > 20 µM | 0.974 | > 40 µM | 0.987 | > 10.2 µM | 0.987 | > 10.2 µM | 0.963 | > 5 µM |
| T47D (breast, adherent) | 0.884 | > 10 µM | 0.949 | > 10 µM | 0.813 | 19.2 µM | 0.695 | 11.9 µM | 0.528 | 0.795 µM | 0.563 | 1.04 µM | 0.958 | > 5 µM |
| T84 (large intestine, adherent) | 0.966 | > 10 µM | 0.989 | > 10 µM | 0.985 | > 20 µM | 0.853 | 32.1 µM | 0.981 | > 10.2 µM | 0.972 | > 10.2 µM | 0.989 | > 5 µM |
| T98G (glioma, adherent) | 0.989 | > 10 µM | 0.98 | > 10 µM | 0.982 | > 20 µM | 0.965 | > 40 µM | 0.954 | > 10.2 µM | 0.978 | > 10.2 µM | 0.813 | 2.46 µM |
| TE-4 (oesophagus, adherent) | 0.952 | > 10 µM | 0.986 | > 10 µM | 0.739 | 6.01 µM | 0.925 | > 40 µM | 0.967 | > 10.2 µM | 0.93 | > 10.2 µM | 0.9 | > 5 µM |
| TGBC11TKB (stomach, adherent) | 0.968 | > 10 µM | 0.979 | > 10 µM | 0.992 | > 20 µM | 0.969 | > 40 µM | 0.991 | > 10.2 µM | 0.964 | > 10.2 µM | 0.929 | > 5 µM |
